About 1,100 (0.3%) of roughly 370,000 compounds were called active. Inconclusive means that the source gave no clear call. Such entries were picked first, then a sample of the others. Calls follow the shape of the dose curve; as a rule, active = well fitted activation curve with a large enough effect; inconclusive = small, poorly fitted or top-dose-only effect; inactive = flat fitted curve, though single readings scatter. Where the call is inconclusive, the potency comes from a doubtful curve fit.
These molecules were tested against Relaxin receptor 1 (Homo sapiens) (UniProt Q9HBX9) (assay: qHTS Assay for Agonists of the Relaxin Receptor RXFP1). Details: HEK293T-RXFP1 cAMP TR-FRET, 30 min; series mostly up to 57.5 µM; activation: at the top concentration.
UniProt Q9HBX9, sequence (Q9HBX9 whole entry, looked up): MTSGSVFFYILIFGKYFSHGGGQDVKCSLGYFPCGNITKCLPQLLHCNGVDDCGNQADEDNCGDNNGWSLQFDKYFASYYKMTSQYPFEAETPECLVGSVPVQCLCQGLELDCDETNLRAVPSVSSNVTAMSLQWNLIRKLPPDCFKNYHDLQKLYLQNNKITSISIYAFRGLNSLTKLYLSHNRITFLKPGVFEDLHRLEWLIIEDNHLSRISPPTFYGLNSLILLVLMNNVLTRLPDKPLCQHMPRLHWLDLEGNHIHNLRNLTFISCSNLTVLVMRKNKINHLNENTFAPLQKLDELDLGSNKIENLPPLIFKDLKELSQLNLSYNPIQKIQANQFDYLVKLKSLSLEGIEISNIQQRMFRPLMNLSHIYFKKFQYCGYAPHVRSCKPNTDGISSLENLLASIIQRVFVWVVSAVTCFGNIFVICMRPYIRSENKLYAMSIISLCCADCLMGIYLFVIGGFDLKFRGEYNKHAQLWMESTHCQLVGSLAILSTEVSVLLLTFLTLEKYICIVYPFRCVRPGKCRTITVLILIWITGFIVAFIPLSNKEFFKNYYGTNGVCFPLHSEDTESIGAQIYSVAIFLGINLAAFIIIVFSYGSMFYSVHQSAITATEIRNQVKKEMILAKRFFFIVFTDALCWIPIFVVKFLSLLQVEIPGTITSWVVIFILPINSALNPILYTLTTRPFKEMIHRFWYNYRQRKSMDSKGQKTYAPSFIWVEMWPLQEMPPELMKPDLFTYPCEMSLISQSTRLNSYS
In short: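 HEK293 cells stably expressing RXFP1, treated 30 min at 37C with compounds plus PDE4 inhibitor Ro 20174; cAMP measured by HTRF TR-FRET. Normalized to buffer and 29 nM porcine relaxin; EC50 by Hill fit.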
In the case of `NC(=O)c1c(NC(=O)COC(=O)CSc2nnc(-c3ccc(Cl)cc3)o2)sc2c1CCC2`, the “activation” value was inactive: 3.64%.
In the case of `Clc1ccc(-n2ncc3c(NCc4ccc5c(c4)OCO5)ncnc32)cc1`, the Potency was inconclusive: 39.8 µM [activator, single point].
For `COC(=O)c1ccccc1NC(=O)Cn1c(=O)n(-c2ccc(Cl)cc2)c(=O)c2c(C)c(C)sc21`, the “activation” value was inactive: 0.361%.
In the case of `Cc1cc(C)c2cc(C#N)c(SCC(=O)NCC3CCCO3)nc2c1` (stereo not given), the Potency was inconclusive: 39.8 µM [activator, single point].
`CC(C)CNc1ncnc2c1sc1nc(N3CCOCC3)c3c(c12)CC(C)(C)OC3` was tested, and the Potency was inconclusive: 39.8 µM [activator, single point].
For `COc1ccc(-c2ccc3nnc(SCC(=O)NCC4CCCO4)n3n2)cc1` (stereo not given), the Potency was inconclusive: 22.4 µM [activator, partial curve].
With `CSc1ccc(CNC(=O)c2ccccc2NC(=O)c2nsc3ccccc23)cc1` the Potency was inconclusive: 39.8 µM [activator, single point].
`Cc1cc(NC(=O)COc2ccc3oc4ccccc4c3c2)no1` was tested, and the Potency was inconclusive: 35.5 µM [activator, single point].
For `COc1ccc(CN2COc3ccc4c(oc(=O)c5ccccc54)c3C2)cc1OC`, the Potency was inconclusive: 14.1 µM [activator, partial curve].
With `CC1CCCN(C(=O)CCS(=O)(=O)c2ccc3c(c2)n(C)c(=O)c(=O)n3C)C1` (stereo not given) the Potency was inconclusive: 31.6 µM [activator, partial curve].
`O=C(O)CCCCCCCCCCCc1ccccc1` was tested, and the Potency was inconclusive: 35.5 µM [activator, single point].
In the case of `CCOC(=O)COc1c(OC)cc(Cl)cc1C1Nc2ccccc2C(=O)N1c1ccc(F)cc1` (stereo not given), the “activation” value was inactive: 1.9%.
In the case of `Cc1ccc(/C(O)=C2/C(=O)C(=O)N(c3ccccn3)C2c2ccc(F)cc2)cc1` (stereo not given), the Potency was inconclusive: 15.8 µM [activator, partial curve].
With `COc1ccc(-c2ccc3c(N)c(C(=O)Nc4cc(F)ccc4C)sc3n2)cc1` the Potency was inconclusive: 31.6 µM [activator, single point].
With `CC(C)(CS(=O)(=O)[O-])NC(=O)CC[N+](C)(C)CCO` the “activation” value was inactive: -3.55%.
For `Cc1cc(-c2nnc3sc(-c4ccc(Cl)cc4Cl)nn23)n[nH]1`, the Potency was inconclusive: 39.8 µM [activator, single point].
In the case of `COc1ccc(C(=O)Nc2cc(-c3ccc(C)cc3)no2)cc1`, the Potency was inconclusive: 35.5 µM [activator, single point].
For `O=c1c(S(=O)(=O)c2ccccc2)cn(Cc2cccc(F)c2)c2cc(N3CCCC3)c(F)cc12`, the Potency was inconclusive: 39.8 µM [activator, single point].
With `O=c1c2ccccc2cnn1Cc1n[nH]c(=S)n1-c1ccc(F)cc1` the Potency was inconclusive: 15.8 µM [activator, partial curve].
`COc1ccc(CN(C)S(=O)(=O)c2nnc(NC(=O)c3ccc(C)cc3)s2)cc1OC` was tested, and the Potency was inconclusive: 6.31 µM [activator, full curve].
For `COc1ccc(C(=O)N/N=C/c2ccc(N3CCOCC3)o2)cc1OC`, the “activation” value was inactive: 0.471%.
With `Cc1cc2cc3c(cc2nc1SCC(=O)OC(C)C)OCO3` the Potency was inconclusive: 31.6 µM [activator, single point].
In the case of `COC(=O)c1ccccc1-n1c(CCC(=O)O)ccc1-c1ccc(F)cc1`, the “activation” value was inactive: 1.29%.
With `Cc1cccc(Nc2nc3c(S(=O)(=O)c4ccccc4)nnn3c3ccccc23)c1C` the Potency was inconclusive: 10 µM [activator, partial curve].
`Cc1cc(=O)oc2c(CN3CCN(CCO)CC3)c(O)ccc12` was tested, and the Potency was inconclusive: 28.2 µM [activator, partial curve].
For `Cc1ccc(-n2nc(C)c3c(-c4cccs4)c(C#N)c(N)nc32)cc1`, the Potency was inconclusive: 39.8 µM [activator, single point].
In the case of `COc1ccc(-n2ncc3c2ncn2nc(Cc4ccccc4)nc32)cc1`, the Potency was inconclusive: 10 µM [activator, partial curve].
In the case of `O=C(c1cc2c(s1)-c1ccccc1OC2)N1CCN(c2ccc(F)cc2)CC1`, the Potency was inconclusive: 10 µM [activator, partial curve].
With `O=C(CSc1nc(-c2ccc(F)cc2)nc2ccc(F)cc12)Nc1cccc(C(=O)O)c1` the Potency was inconclusive: 25.1 µM [activator, partial curve].
For `COc1ccc2cc(CCN3C(=O)c4ccccc4C3=O)c(=O)[nH]c2c1`, the Potency was inconclusive: 35.5 µM [activator, single point].
`Cc1ccc(S(=O)(=O)Nc2cccc3ncccc23)cc1` was tested, and the “activation” value was inactive: -0.53%.
`CCOc1ccc(NC(=O)c2sc3nc(N4CCOCC4)c4c(c3c2N)CC(C)(C)OC4)cc1` was tested, and the Potency was inconclusive: 22.4 µM [activator, partial curve].
In the case of `O=C(Nc1cccc(C(F)(F)F)c1)C1CCN(S(=O)(=O)c2cccs2)CC1`, the Potency was inconclusive: 39.8 µM [activator, single point].
With `Cc1cccn2c(=O)c(/C=C(\C#N)C(=O)NC3CCS(=O)(=O)C3)c(N3CCC(C(N)=O)CC3)nc12` (stereo not given) the Potency was inconclusive: 14.1 µM [activator, partial curve].
With `CSc1ccc(-c2c(C#N)c(N)nc3c2c(C)nn3-c2ccccc2)cc1` the Potency was inconclusive: 39.8 µM [activator, single point].
In the case of `O=C(Nc1nccs1)c1ccc(COc2ccccc2)o1`, the Potency was inconclusive: 39.8 µM [activator, single point].
In the case of `Cn1c2ccccc2c2cnn(CC(=O)Nc3ccccc3F)c(=O)c21`, the Potency was inconclusive: 35.5 µM [activator, single point].
For `Cc1cccc(NC(=O)c2sc3nc(-c4cc5ccc(O)cc5oc4=O)[nH]c(=O)c3c2C)c1`, the Potency was inconclusive: 35.5 µM [activator, single point].
With `CCCOc1ccc(CNC(=O)c2ccc3c(c2)N(CC)CCS3)cc1` the Potency was inconclusive: 25.1 µM [activator, partial curve].
In the case of `C/C(=N\NC(=O)c1cnccn1)c1ccc([N+](=O)[O-])cc1`, the Potency was inconclusive: 22.4 µM [activator, partial curve].
% is scaled to controls: 0 for no effect and ±100 for the full control effect; potency is read from the fitted curve at half-maximal effect; tags tell the direction and shape of the fitted curve.
Also: nearly all actives have a fitted effect of over 60% in size.
